Reference: PubChem BioAssay AID1963576 (National Center for Advancing Translational Sciences (NCATS), 2024)
Among all 46,000 compounds or so, about 60 (0.1%) were called active. The inconclusive results got no clear call from the source; some entries with a clear call stand among them for comparison. Calls come from the whole dose curve; as a rule, active = well fitted inhibition curve with a large enough effect; inconclusive = small, poorly fitted or top-dose-only effect; inactive = no such curve, though single readings can be large or run the other way. No potency is given beside an inconclusive call; the fits are too rough.

Assay: Primary qHTS assay for Inhibitors of ovarian cancer metastasis using an organotypic tumor microenvironment (TME) model.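 For potency: count of GFP cancer cells still attached after washing and fixation.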 Note: nearly all actives have a fitted effect of over 65% in size.
Settings: SKOV3ip1-GFP adhesion/invasion on 3D omental model, fluorescence; series mostly up to 45.8 µM
How it was run: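 qHTS, 4-pt dose (0.36-46 umol/L); SKOV3ip1-GFP, 1,200 cells/well, no FBS; primary omental fibroblast/mesothelial co-culture 48 h pre-grown; 2 h RT + 16 h 37 C; PBS wash, 4% PFA; GFP count 488/509 nm.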
Potency is the fitted concentration of half-maximal effect; tags give direction and shape of the fitted curve.

| Compound | Potency |
| --- | --- |
| CN(Cc1ccccc1)C(=O)CSc1c2c(nc3ccc(Cl)cc13)CCCC2 | inconclusive [inhibitor, single point] |
| COc1cccc(OCCn2c(-c3ccc(Br)cc3)nc3ccccc3c2=O)c1 | inconclusive [inhibitor, single point] |
| CCOC(=O)c1c(NC(=O)c2cc(CC)on2)sc(C(C)=O)c1C | inactive |
| COc1ccc(CCN2CCC(CNC(=O)c3cnn(-c4cccc(Cl)c4)c3C3CCN(C(=O)OC(C)(C)C)CC3)CC2)cc1 | inconclusive [inhibitor, single point] |
| Cc1ccc(CSc2nc3cccnc3n2Cc2ccc(C(=O)NC3CCCCC3)cc2)cc1 | inconclusive [inhibitor, single point] |
| CCOc1ccc(-c2nc(SCC(=O)Nc3cc(F)ccc3F)n3[nH]c(=O)cc3n2)cc1 | inconclusive [inhibitor, single point] |
| Cc1ccc(CSc2nc(-c3ccccc3C)nc3c2Cc2c(CO)cnc(C)c2O3)cc1 | inconclusive [inhibitor, single point] |
| COCCNC(=O)C1=CC(c2ccc3c(c2)OCO3)=NS(=O)(=O)N1C | inactive |
| CCCCn1c(=N)n(CCOc2ccccc2OC)c2ccccc21 | inconclusive [inhibitor, single point] |
| COc1ccccc1NC(=O)C1=C(C)Nc2nc(SCc3ccccc3)nn2C1c1ccncc1 (stereo not given) | inactive |
| CCn1cc(C(=O)N2CCN(c3ccc(OC)cc3)CC2)c(=O)c2cc(S(=O)(=O)N3CCOCC3)ccc21 | inconclusive [inhibitor, single point] |
| O=C(Cn1c(-c2cccs2)cc2ccccc21)NCCCN1CCN(c2ccccc2F)CC1 | inconclusive [inhibitor, partial curve, poor fit] |
| CCN(C(=O)c1cc2c(s1)-c1ccccc1OC2)c1cccc(C(F)(F)F)c1 | inactive |
| COc1ccc(NC(=O)Nc2nnc(N(CC(C)C)CC(C)C)s2)c(OC)c1 | inconclusive [inhibitor, single point] |
| O=C(COc1ccc(Cl)cc1)Nc1sc2c(c1C(=O)Nc1cccc(Cl)c1)CCCC2 | inactive |
| Cc1cccc(C(=O)N2CCc3cc(CNC(=O)c4ccnn4C)ccc32)c1 | inconclusive [inhibitor, single point] |
| CCOc1ccccc1C(=O)Nc1ccc2nc3c(c(Nc4ccc(OC)c(OC)c4)c2c1)CCCC3 | inconclusive [inhibitor, partial curve, poor fit] |
| C=CC(=O)Nc1cc2c(Nc3ccc(F)c(Cl)c3)ncnc2cc1C#CC(C)(C)N1CCN(C)CC1 | inconclusive [inhibitor, full curve] |
| CCCOc1ccc(C2c3c(-c4ccccc4O)n[nH]c3C(=O)N2Cc2cccnc2)cc1 (stereo not given) | inconclusive [inhibitor, single point] |
| COCc1nc2ccccc2n1Cc1cccc(C)c1 | inactive |

| Compound | Potency |
| --- | --- |
| O=C(CCS(=O)(=O)c1nc(-c2ccc3c(c2)OCO3)cc(C(F)(F)F)n1)Nc1ccc(F)cc1F | inconclusive [inhibitor, partial curve, poor fit] |
| CCCCOC(=O)c1c(C)oc2ccc(NS(=O)(=O)c3ccc(F)cc3C)cc12 | inconclusive [inhibitor, single point] |
| COc1cc2nc(Nc3ccc(C)c(C)c3)nc(N)c2cc1OC | inconclusive [inhibitor, partial curve, poor fit] |
| CCc1ccc(CNC(=O)c2ccc(-n3c(C)cc4c3CCC(C)C4)cc2)cc1 (stereo not given) | inconclusive [inhibitor, full curve, poor fit] |
| O=C(NCCCN1CCN(c2ccccc2)CC1)c1ccc2nc(CCc3ccccc3)oc2c1 | inconclusive [inhibitor, partial curve, poor fit] |
| O=C(CN1C(=O)C(c2ccc(F)cc2)=NC12CCCCCC2)Nc1ccc(F)c(Cl)c1 | inconclusive [inhibitor, single point] |
| CCCCc1ccc(NC(=O)c2ccc(=O)n(Cc3cccc(C)c3)c2)cc1 | inconclusive [inhibitor, partial curve] |
| CCCCN(C)CCCNC(=O)c1cc(-c2ccc(Br)s2)nc2ccccc12 | inconclusive [inhibitor, partial curve, poor fit] |
| Cc1nnc(N2CCC(C(=O)NCCc3ccccc3Cl)CC2)c2nn(-c3ccccc3)c(C)c12 | inconclusive [inhibitor, single point] |
| Cc1ccc(/C=C/c2onc(C)c2S(=O)(=O)N2CCC(C(=O)N3CCC(N(C)C(C)C)CC3)CC2)cc1 | inconclusive [inhibitor, full curve, poor fit] |
| Cc1ccc(S(=O)(=O)N(CC(O)Cn2c3ccccc3c3ccccc32)c2cccc(C(N)=O)c2)cc1 (stereo not given) | inactive |
| CCN1CCN(CCCNC(=O)c2cc3c(=O)n(C)c4ccccc4c3s2)CC1 | inactive |
| Cc1cc(F)ccc1S(=O)(=O)NCC(c1ccco1)S(=O)(=O)c1cccs1 (stereo not given) | inconclusive [inhibitor, full curve, poor fit] |
| Cc1cccc(NC(=O)c2ccc(N(Cc3ccccc3)S(C)(=O)=O)cc2)c1 | inconclusive [inhibitor, single point] |
| COc1ccc(Cn2c(SCc3ccc(C(=O)NC(C)C)cc3)nc3cccnc32)cc1 | inconclusive [inhibitor, single point] |
| Cc1cc(C)cc(NC(=O)CCCn2c3ccccc3c(=O)c3ccccc32)c1 | inactive |
| CCOc1ccc(CNC(=O)c2cc(=O)[nH]c3ccc(S(=O)(=O)N4CCCC4)cc23)cc1 | inconclusive [inhibitor, partial curve, poor fit] |
| CCOc1ccc(OCC)c(NC(=O)c2ccc(-c3ccccc3)s2)c1 | inconclusive [inhibitor, partial curve, poor fit] |
| Cc1[nH]c2ccccc2c1C1(O)C(=O)N(Cc2ccccc2Cl)c2ccccc21 (stereo not given) | inconclusive [inhibitor, single point] |
| NC(=O)Nc1cc(-c2ccc(CN3CCOCC3)cc2)sc1C(N)=O | inactive |

| Compound | Potency |
| --- | --- |
| CC(C)c1ccc(C2c3c(-c4ccccc4O)n[nH]c3C(=O)N2Cc2ccncc2)cc1 (stereo not given) | inconclusive [inhibitor, single point] |
| CCc1ccc(C2CC(=O)c3c([nH]c(C(=O)OCCOc4ccccc4)c3C)C2)cc1 (stereo not given) | inconclusive [inhibitor, single point] |
| CCc1ccc(CNC(=O)C2CCCN(c3nnc(C)c4c(C)n(-c5ccccc5)nc34)C2)cc1 (stereo not given) | inconclusive [inhibitor, single point] |
| COc1ccccc1CN1CCC(CNC(=O)c2cnn(-c3ccccc3Cl)c2C2CCN(C(=O)OC(C)(C)C)CC2)CC1 | inconclusive [inhibitor, single point] |
| COc1cc(-c2nc(SCC(=O)Nc3ccc4c(c3)OCO4)c(-c3ccccc3)[nH]2)cc(OC)c1OC | inconclusive [inhibitor, single point] |
| COc1ccc(OCCn2c(NC(=O)c3ccc(OC)cc3)nc3ccccc32)cc1 | inconclusive [inhibitor, single point] |
| C[C@]12CC[C@@H]3c4ccc(O)cc4CC[C@H]3[C@H]1CC[C@H]2O | inactive |
| CCCCSc1nc2sc3c(c2c(=O)n1-c1ccccc1C)CC(C)(C)OC3 | inconclusive [inhibitor, partial curve] |
| CCCCOC(=O)c1ccc(NC(=O)c2sc3nc(C)cc(C)c3c2N)cc1 | inconclusive [inhibitor, full curve, poor fit] |
| O=C(NCCSc1c[nH]c2ccccc12)c1ccccc1Cl | inactive |
| Cc1nc(-c2ccc(F)cc2)sc1CCNC(=O)Cc1ccc(F)cc1 | inconclusive [inhibitor, full curve, poor fit] |
| CSc1ccccc1NC(=O)CCS(=O)(=O)c1nc(-c2ccc3c(c2)OCO3)cc(C(F)(F)F)n1 | inconclusive [inhibitor, single point] |
| Cc1ccc(Cn2c(CCNC(=O)c3cccc(C)c3)nc3ccccc32)cc1 | inactive |
| COc1ccc(Cl)cc1NC(=O)CSC1=Nc2ccccc2C2=NC(CCC(=O)NCc3ccco3)C(=O)N12 (stereo not given) | inactive |
| Cc1cccc(-c2noc(-c3cc(C(C)C)[nH]n3)n2)c1 | inconclusive [inhibitor, single point] |
| COc1ccc(-n2nc3c(N4CCC(C(=O)NCc5ccccc5C)CC4)nnc(C)c3c2C)cc1 | inconclusive [inhibitor, single point] |
| Cc1nc2c(c(C)c1CCC(=O)N1CCN(c3ccccc3)CC1)c(=O)n(C)c(=O)n2C | inconclusive [inhibitor, single point] |
| Cc1ccc(N2C(=O)C(CC(=O)Nc3ccc(F)cc3)N(CCC3=CCCCC3)C2=O)cc1 (stereo not given) | inconclusive [inhibitor, partial curve, poor fit] |
| Nc1ccc(-c2ccc3ncc4ccc(=O)n(-c5cccc(C(F)(F)F)c5)c4c3c2)cn1 | inconclusive [inhibitor, full curve, poor fit] |
| O=C(Nc1ccc(C(F)(F)F)cc1)c1cc(S(=O)(=O)NC2CCCCCC2)ccc1F | inconclusive [inhibitor, single point] |
